According to PubChem BioAssay AID488969 (Vanderbilt High Throughput Screening Facility, 2010):
Whole data set: some 110,000 compounds, median “z-score” near -0.1, cut for the highest 2% near 2. This is one part of the list. Activity calls are given as the source filed them.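 Rule for the calls: active = z-score in the third read window above 3 or below -3; inactive = the rest.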

What follows are molecules tested against Metabotropic glutamate receptor 8 (Rattus norvegicus) (UniProt P70579) (assay: mGluR8 Gi/Go-coupled signaling modulation – cell-based, rat, thallium flux, HTS, primary screen (AID 488969)). Details: HEK293 rat mGluR8, GIRK (G protein-gated inwardly rectifying potassium channel) thallium flux, FluoZin2; at 10 µM; stronger effect = higher value; submaximal glutamate (EC20) added with thallium.
Sequence of UniProt P70579 (P70579 whole entry, looked up): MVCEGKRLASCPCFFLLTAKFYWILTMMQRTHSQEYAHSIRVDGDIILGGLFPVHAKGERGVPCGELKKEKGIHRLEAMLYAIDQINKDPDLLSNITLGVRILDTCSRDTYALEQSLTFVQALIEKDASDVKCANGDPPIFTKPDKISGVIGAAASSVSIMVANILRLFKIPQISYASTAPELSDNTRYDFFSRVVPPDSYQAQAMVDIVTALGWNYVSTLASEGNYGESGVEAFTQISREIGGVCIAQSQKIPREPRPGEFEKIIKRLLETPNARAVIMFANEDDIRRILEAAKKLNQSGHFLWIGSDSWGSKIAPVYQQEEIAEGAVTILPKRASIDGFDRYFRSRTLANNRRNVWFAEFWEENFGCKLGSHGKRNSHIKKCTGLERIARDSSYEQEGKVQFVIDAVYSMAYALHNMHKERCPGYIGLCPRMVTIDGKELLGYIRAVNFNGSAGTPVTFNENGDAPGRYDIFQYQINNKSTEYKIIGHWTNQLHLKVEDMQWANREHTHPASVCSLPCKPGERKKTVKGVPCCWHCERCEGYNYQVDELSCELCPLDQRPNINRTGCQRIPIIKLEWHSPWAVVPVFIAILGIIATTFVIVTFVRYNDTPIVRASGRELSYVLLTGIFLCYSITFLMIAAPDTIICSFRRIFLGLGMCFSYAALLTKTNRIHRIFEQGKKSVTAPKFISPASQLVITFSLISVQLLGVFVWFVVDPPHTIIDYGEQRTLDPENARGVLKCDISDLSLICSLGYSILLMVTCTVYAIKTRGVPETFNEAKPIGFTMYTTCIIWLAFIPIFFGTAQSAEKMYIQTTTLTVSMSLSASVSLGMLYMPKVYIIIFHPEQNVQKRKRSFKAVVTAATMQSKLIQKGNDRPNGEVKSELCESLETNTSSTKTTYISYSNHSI

Row | SMILES | z-score
1 | Cc1ccc(S(=O)(=O)N2C3C=CC(C3)C2C(=O)O)cc1 (configuration not stated) | 0.75
2 | C=CCN(C(C)=O)C1CC(=O)N(c2ccc(OCCC)cc2)C1=O (configuration not stated) | -0.00882
3 | Cc1ccccc1-n1c(O)c(/C=N/N2CCCCC2c2cccnc2)c(=O)[nH]c1=O (configuration not stated) | -0.187
4 | O=C(CN(Cc1ccc2c(c1)OCO2)C(=O)CSc1nc2ccccc2o1)NC1CCCCC1 | -0.225
5 | Cc1ccc(NC(=O)c2cccc(NC(=O)/C=C/c3ccco3)c2)cc1C | -0.217
6 | CCOC(=O)c1cnc2c(Cl)cccc2c1NCCN1CCOCC1 | -0.145
7 | Cc1sc2nc(CN3CCCC3)nc(N3CCN(S(=O)(=O)c4cccs4)CC3)c2c1C | active: 4.12
8 | CCCCCn1c(Sc2nc3ccccc3s2)nc2c1c(=O)[nH]c(=O)n2C | -0.211
9 | CCOC(=O)N1CCC(N2C(=O)c3ccccc3C2Nc2ccccc2)CC1 (configuration not stated) | -0.126
10 | CCC1(C)NC(=O)N(CC(=O)N2N=C(c3ccccc3)CC2c2ccc(OC)cc2)C1=O (configuration not stated) | 0.0737
11 | CCOP(=O)(OCC)C(NC(=O)Nc1ccccc1)C(N)=O (configuration not stated) | -0.102
12 | COC(=O)CSc1nnc(SCc2ccccc2)s1 | -0.258
13 | CCOc1ccc(C(=O)Nc2ccccc2N2CCCC2)cc1 | 0.612
14 | CCOc1ccccc1NC(=O)c1ccccc1NS(C)(=O)=O | 0.0037
15 | Cc1cc(C)nc(NC(=O)CSc2nc3cc(Cl)ccc3s2)n1 | -0.174
16 | CC(C)Cn1cnc2c(=O)oc3ccccc3c21 | -1.48
17 | CCC(=O)Nc1ccc2oc(-c3cccc(C)c3)nc2c1 | -0.279
18 | CCOc1ccc(OCCN(C)Cc2ccccc2)cc1 | 0.127
19 | O=C(NCc1ccccc1Cl)c1ccccc1CCc1ccccc1 | -0.873
20 | CCNC(=O)CN1C(=O)NC2(CCCCCC2)C1=O | 0.0257
21 | CCCCn1nc2cc(C(=O)NCC34CC5CC(CC(C5)C3)C4)ccc2c1OC | -0.2
22 | Cc1ccccc1-c1nc2ccccc2o1 | -0.134
23 | NC(=O)NCCC1=CCCCC1 | -0.106

Row | SMILES | z-score
24 | COC(=O)c1ccc(NC(=O)CSc2ccccc2)cc1 | 0.651
25 | COc1ccccc1OCC(=O)NNC(=O)C(=O)N1CCCC1 | 0.41
26 | CN1CCN(CCC(=O)N2c3ccccc3Sc3ccc(Cl)cc32)CC1 | -0.245
27 | Cc1cccc(OCC(=O)O/N=C(\N)c2ccccn2)c1 | -1.72
28 | CC1(C)CC(NC(=O)COc2ccc3ccccc3c2)CC(C)(C)N1 | 0.622
29 | CSCc1cc(N2CCOCC2)nc(SCc2ccc(Cl)cc2Cl)n1 | -0.112
30 | Cc1ccn2c(C(=O)CSc3ccc(Cl)cc3)c(C)nc2c1 | -0.0783
31 | CCC(C)N(CCNC(=O)CC1Oc2ccccc2NC1=O)C1CCCCC1 (configuration not stated) | 0.552
32 | O=C(NCC(c1cccnc1)N1CCN(c2ccc(F)cc2)CC1)c1ccc2c(c1)OCO2 (configuration not stated) | 0.329
33 | CSCCC(NC(=O)CCN1C(=O)c2ccccc2C1=O)C(=O)O (configuration not stated) | -0.451
34 | CCOC(=O)CC(NC(=O)Cc1ccccc1)c1ccccc1Cl (configuration not stated) | 0.159
35 | CC(C)CCC(C(=O)O)C(C)CC(=O)NC1CCCCC1 (configuration not stated) | 0.274
36 | CSc1nc2ccc(NS(=O)(=O)c3ccccc3F)cc2s1 | -0.495
37 | Cc1c(NC(=O)c2cc(-c3ccc(Cl)s3)nc3ccccc23)c(=O)n(-c2ccccc2)n1C | -0.639
38 | CCCS(=O)(=O)Nc1cc(C(F)(F)F)ccc1OCCOC | 1.49
39 | Cc1cc2oc(=O)cc(CN3CCOCC3)c2cc1C | -0.0906
40 | O=C(O)CCSc1nnc(-c2cccnc2)n1-c1ccccc1 | -0.119
41 | COc1ccc(NC(=O)N2CCCCC2)cc1 | 0.0992
42 | C/C(=N\NC(=O)c1nn(C)cc1Br)c1cccc(NC(=O)C2CCCC2)c1 | -0.261
43 | Cc1nn(-c2ccccc2)c2sc(-c3nnc(SCC(=O)O)o3)cc12 | 0.0762
44 | Cc1nn(C)cc1/C=N/NC(=O)Cn1nccc1C | 0.6
45 | O=C(NNC(=O)C1C2CCC(C2)C1C(=O)O)c1ccc(Br)o1 (configuration not stated) | 1.08
46 | Cc1ccc(NC(=O)c2cc(S(=O)(=O)NCCC3=CCCCC3)ccc2F)cc1F | -0.316

Row | SMILES | z-score
47 | N#Cc1ccc(Oc2nc(C#N)cc(-c3ccccc3)n2)cc1 | -0.015
48 | Cc1cc(C)c(COCc2cc(/C=N/O)c(C)cc2C)cc1/C=N/O | 0.0209
49 | Cc1c2ccccc2nc2c(F)c(N(C)C)c(F)c(F)c12 | -0.214
50 | CCOC(=O)CC(=O)CSc1nc2nc(C)cc(C)n2n1 | 0.214
51 | CC(C)CCNC(=O)c1ccc(Cl)c(NC(=O)Cc2ccccc2)c1 | -0.322
52 | CCOC(=O)c1cnc(-c2ccccc2)nc1N(C)C | -0.275
53 | Cc1cc([N+](=O)[O-])nn1CC(=O)N1c2ccccc2CC1C (configuration not stated) | 0.534
54 | CC(C)(C)c1ccc(C(=O)c2c[nH]c(C(=O)NCC3CCCO3)c2)cc1 (configuration not stated) | 0.303
55 | CCCc1nc2n[nH]c(N)c2c2c1COC(C)(C)C2 | 0.739
56 | COc1ccc(Cc2nnc(NS(C)(=O)=O)s2)cc1 | 0.376
57 | O=C(c1cccn(Cc2ccc(Cl)c(Cl)c2)c1=O)N1CCOCC1 | -0.0147
58 | CCNC(=S)N(Cc1ccc2c(c1)OCO2)C1CC(=O)N(c2ccc(OC)cc2)C1=O (configuration not stated) | -0.17
59 | CCC(=O)NC(=S)Nc1ccc(Cl)cn1 | 0.168
60 | COc1ccc2nc(NC(=O)CSc3nnc(N)s3)sc2c1 | 0.075
61 | Cc1cc(Nc2nc3ccccc3nc2Cl)n(-c2ccccc2C)n1 | -0.459
62 | CC(=O)Nc1c(O)nc(SCC(=O)Nc2cccc(C)c2)[nH]c1=O | -0.267
63 | CN1CCN(c2ccccc2NC(=O)Cc2cn(C)c3ccccc23)CC1 | 1.39
64 | CN1CCCN(C(=O)c2ccc(Cl)c(S(=O)(=O)N(C)c3ccccc3)c2)CC1 | -0.561
65 | NC(=O)c1ccccc1NS(=O)(=O)Cc1ccc(Cl)cc1 | -0.0561
66 | CCOC(=O)C1=C(CSc2nccn2C)NC(=O)NC1c1ccc2c(c1)OCO2 (configuration not stated) | -0.293
67 | CCOC(=O)C12CNC(=O)C(C(=O)OCC)(CNC1=O)C2 | -1.28
68 | CCSc1nc(O)c(C2OC(=O)c3c2ccc(OC)c3OC)c(=O)n1CC (configuration not stated) | 0.442
69 | COc1ccc(/C(O)=C2/C(=O)C(=O)N(CCN3CCOCC3)C2c2ccc(C)cc2)cc1 (configuration not stated) | 0.181

Row | SMILES | z-score
70 | CCCSc1nnc(-c2c[nH]c3ccccc23)n1C | 0.341
71 | CCOc1ccc(C2C(C(=O)c3cccs3)=C(O)C(=O)N2CCCn2ccnc2)cc1 (configuration not stated) | 0.048
72 | COc1ccc(COc2ccccc2C(=O)NCc2ccccc2)cc1F | 0.112
73 | CCOC(=O)c1sc(NC(=O)CSc2nnnn2-c2ccc(C)cc2)c(C(=O)OCC)c1C | 1.03
74 | COC(=O)c1cc2n(n1)CCN(Cc1ccccc1F)C2=O | -0.243
75 | O=C(CCN1CCN(C(c2ccccc2)c2ccccc2)CC1)N/N=C/c1ccc(O)cc1O | -0.572
76 | O=C(NCc1ccc(F)cc1)c1cc(-c2cccs2)on1 | -0.103
77 | O=C(COC(=O)CN1C(=O)c2ccccc2C1=O)Nc1ncc(Cl)cc1Cl | 0.719
78 | Cn1c(=O)c2c(nc(NCC(O)CO)n2CCc2ccccc2)n(C)c1=O (configuration not stated) | -0.168
79 | COc1cccc(C2CC(c3ccc(Cl)cc3Cl)Nc3nc(N)nn32)c1 (configuration not stated) | 0.631
80 | O=C(CC1N=C2c3ccccc3N=C(SCc3ccc(Cl)cc3)N2C1=O)NCc1ccco1 (configuration not stated) | -0.12
81 | O=C(O)C12CC3CC(C1)CC(n1ncc(N4CCN(c5ccccc5)CC4)c(Cl)c1=O)(C3)C2 | -0.147
82 | CN(CCNC(=O)c1cn(C)c2ccc(S(=O)(=O)N3CCCC3)cc2c1=O)CCc1ccccc1 | -0.305
83 | CSC1=NCCN1C(=O)Cc1ccc(F)cc1 | 0.756
84 | CC(/C=C/C=C/c1ccccc1)=N/NC(=O)CNc1ccc(C)cc1 | -0.494
85 | CCOc1ccc(/C=c2\sc3nc(-c4ccco4)nn3c2=O)cc1OCC | -0.218
86 | O=C(Nc1ccc(F)cc1)c1ccc(COc2ccccc2)cc1 | 0.314
87 | Cc1cc(NS(=O)(=O)c2ccc(NC(=O)c3cc(-c4ccccc4Cl)nc4ccccc34)cc2)no1 | -1.51
88 | COCCn1c(=NC(=O)c2cccs2)sc2cc(NC(C)=O)ccc21 | -0.0102
89 | Cc1cc(C)nc(NS(=O)(=O)c2ccc(NC(=O)c3ccc(S(=O)(=O)N4CCOCC4)cc3)cc2)n1 | -0.0492
90 | Cn1c(SCC(=O)N/N=C/c2cccs2)nc2ccccc21 | -0.158
91 | CCCC1=C(C(=O)OCC)C(c2c(C)nn(-c3ccccc3)c2Cl)C(C#N)=C(N)O1 (configuration not stated) | -0.587
92 | CCOc1cc(/C=C/C(=O)c2ccc(O)cc2)ccc1OCC(=O)N(C)C | -0.134

Row | SMILES | z-score
93 | CCn1c(COc2ccccc2C)nnc1SCC(=O)Nc1ccc2c(c1)OCCO2 | 0.604
94 | c1cc2c(cc1C1CCCN1)OCCCO2 (configuration not stated) | -0.219
95 | Cc1ccccc1OCc1nnc(SCC(=O)Nc2ccc3nc(SCC(=O)NC(C)(C)C)sc3c2)n1C | -0.163
96 | CC1=C(C(=O)N2CCCCC2)C(c2cccs2)C2=C(CCCC2=O)N1 (configuration not stated) | 0.187
97 | O=C(O)C1CCCCC1C(=O)Nc1cccc(Cl)c1Cl (configuration not stated) | 0.0879
98 | CCN(C(=O)c1cc2ccccc2oc1=O)c1ccccc1 | 0.0722
99 | Cc1ccc2oc(-c3ccccc3C(=O)O)cc(=O)c2c1 | -0.04
100 | Cc1cccc(NC(=O)CSc2nnc(Cn3cnc4ccccc43)o2)c1 | -0.219
101 | CCOc1ccc(C(C)(N)C(=O)O)cc1 (configuration not stated) | 0.101
102 | Cc1ccc(N2C(=O)C(Cc3ccccc3)NC2=S)cc1 (configuration not stated) | 0.815
103 | S=C1COC(c2ccccc2)N1c1ccccc1 (configuration not stated) | 1.17
104 | Cc1ccc(-n2ncc3c(NCCCOC(C)C)ncnc32)c(C)c1 | 0.0495
105 | O=C(CN1CCC(n2nnc3cc(F)ccc32)CC1)N1CCc2ccccc2C1 | -0.899
106 | Cc1ccc(CC2CC(=O)N(c3nc4ccccc4n3C)C2=O)cc1 (configuration not stated) | -0.156
107 | COc1ccc(-n2nc(C(=O)N3CCC(C#N)CC3)c3c4ccccc4n(C)c3c2=O)cc1 | 0.258
108 | CCn1c(N)c(C(=O)NCc2ccco2)sc1=S | active: 4.44
109 | Cc1ccc(C(=O)N2CCC(C)CC2)cc1C | -0.0216
110 | Cc1c(NC(=O)Cc2ccccc2)cccc1C(=O)NN1C(=O)c2ccccc2C1=O | -0.321
111 | Cc1cc(C(=O)C(C)OC(=O)C2=NNC(=O)CC2)c(C)n1-c1ccc(OC(F)F)cc1 (configuration not stated) | -0.192
112 | Cc1cc(C)nc(NC2=NCC(=O)N2c2ccccc2)n1 | -0.36
